# Results reported in patent US20110124501A1, “Active compound combinations” (Bayer CropScience AG, priority 2009, published 2011).
# Read-outs that look alike come from different tables or passages of the source.
# Test system: Phytophthora infestans
# Assay type: in vivo
substance,measurement,setting,value
"(1R)-1,2,3,4-tetrahydronaphthalen-1-yl 2-(1-{[3,5-bis(difluoromethyl)-1H-pyrazol-1-yl]acetyl}piperidin-4-yl)-1,3-thiazole-4-carboxylate [(I-8)]",Efficacy in % found,application rate 0.1 ppm a.i.,26%
same,Efficacy in % found,application rate 0.2 ppm a.i.,52%
